# Laboratory results published in PubChem BioAssay AID485344 (National Center for Advancing Translational Sciences (NCATS), 2010).
# Several values for one entry are separate records, joined by “and”; a condition that tells them apart may be missing. Equal values may be shown once. Out of some 340,000 compounds screened, about 6,900 (2%) were called active. Rule as the data show it: active = inhibition above about 30%; inactive = below that, where a call was filed. The list shows a part of the results, in another mix than the full data. Where no call is shown, the source filed none.
# Target: D(2) dopamine receptor (Homo sapiens) (UniProt P14416)
# Chain of UniProt P14416 (P14416 whole entry, looked up): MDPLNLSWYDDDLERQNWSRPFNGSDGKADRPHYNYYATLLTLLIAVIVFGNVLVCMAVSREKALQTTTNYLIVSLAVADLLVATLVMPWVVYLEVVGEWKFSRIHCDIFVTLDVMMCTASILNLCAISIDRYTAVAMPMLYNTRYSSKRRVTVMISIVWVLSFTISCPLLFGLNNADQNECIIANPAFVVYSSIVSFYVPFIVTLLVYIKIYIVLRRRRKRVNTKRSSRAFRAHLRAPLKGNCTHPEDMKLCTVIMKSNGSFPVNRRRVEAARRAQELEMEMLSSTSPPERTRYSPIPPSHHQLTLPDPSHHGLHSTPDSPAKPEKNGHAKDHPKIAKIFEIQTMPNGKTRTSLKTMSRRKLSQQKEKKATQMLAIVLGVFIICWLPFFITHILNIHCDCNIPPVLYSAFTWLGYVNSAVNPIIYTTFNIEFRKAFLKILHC
# Experiment: HTS Assay for Allosteric Antagonists of the Human D2 Dopamine Receptor: Primary Screen for Antagonists; also: 0% is about no effect
# Conditions: HEK293 TREx D2 cells, calcium flux, dopamine EC80; at 10 µM; stronger effect = higher value
# From the text: NIH Chemical Genomics Center [NCGC] NIH Molecular Libraries Probe Centers Network [MLPCN] MLPCN Grant: NS064831-01 Assay Submitter (PI): David Sibley Dopamine receptors (DARs) are involved in the etiology and/or therapy of a number of neuropsychiatric and endocrine disorders. For instance, all receptor-based antiparkinsonian drugs work via stimulating the D2 DAR subtype whereas all FDA-approved antipsychotic agents are antagonists of this receptor. […] There are three different types of allosteric modulators that we are seeking, two of which will stimulate or augment receptor signaling, allosteric agonists and potentiators, while the third, allosteric antagonists, will attenuate receptor signaling. The present primary screening assay measures compound antagonism after an EC80 addition of dopamine by tracking calcium flux in a […], inducible Hek293 Trex D2 cell line.
# Freshly passaged cells are plated in 1536 well black, clear bottom plates at a density of 4000 cells/well in 3 ul of complete media containing 1x tetracycline inducer. After an overnight incubation at 30 C in 5% CO2, cells are loaded with 2 ul of the no wash Calcium Assay Kit (ABD Bioquest) and incubated at room temperature for 30 to 90 minutes. Agonist read: A 10 cycle (1 second/cycle) baseline measurement is taken and then the FDSS online 1536 pintool delivers 23 nl of compound library (as well as dopamine controls) to the plate. The plate is measured for kinetically at 1 cycle/sec for 180 seconds. Following the 180 second read, 1 ul of an EC80 (negative modulation assay) is delivered by an onboard pipette head. Measurements are taken kinetically for an additional 180 seconds.
row,Structure (SMILES),inhibition
1,O=S(=O)(c1ccccc1)n1nc(-c2ccc(Cl)cc2)nc1NCc1ccccc1,3.43%
2,COc1ccc(NC(=O)Cn2c(-c3ccc(F)cc3)cc(C(C)=O)c2C)c(OC)c1,-2.11%
3,COc1ccc(NC(=O)/C=C/c2cc(Br)ccc2OC)cc1,active: 49.5%
4,CC(=O)Nc1ccc(S(=O)(=O)NCC2CCC(C(=O)NCCc3ccc(C)cc3)CC2)cc1 (stereo not drawn),3.94%
5,COc1ccc(CCNC(=O)Cn2c(=O)nc(-c3ccccc3)c3cc(Cl)ccc32)cc1OC,8.62%
6,CC(=O)c1cccc(NC(=O)c2ccc3c(c2)N(Cc2ccc(C)cc2)CCS3)c1,-0.242%
7,N#C/C(=C\c1ccc(F)cc1)c1nc(-c2ccc(-c3ccccc3)cc2)cs1,3.76%
8,COc1cccc(CC(=O)Nc2c(C(=O)N3CCN(c4ccccc4F)CC3)oc3ccccc23)c1,23.7%
9,COCCCNc1nc2c(c(=O)[nH]c(=O)n2C)n1CC(O)COc1ccc(Cl)cc1 (stereo not drawn),-12.5%
10,Cc1cc(C)c2c(=O)c3c(oc2c1)C(=O)N(CCCOC(C)C)C3c1ccccc1F (stereo not drawn),-2.44%
11,CCCC1=Nc2cc(C(=O)NC3CCCCC3)ccc2Sc2ccc(C)cc21,17.4%
12,COC(=O)c1ccccc1NC(=O)C(Cc1ccccc1)N1Cc2ccccc2C1=O (stereo not drawn),7.5%
13,O=C(Cc1ccc(Cl)cc1)Nc1ccc2oc(-c3ccc(F)cc3)nc2c1,-18.1%
14,COc1ccc(C)cc1NC(=O)Cn1cc(S(=O)(=O)N2CCC(C)CC2)c2ccccc2c1=O,-8.29%
15,CCOc1ccc(NC(=O)c2c(NCc3cc(OC)c(OC)cc3OC)sc3c2CCCC3)cc1,9.86%
16,CCN(C(=O)C(NS(=O)(=O)c1ccc(Br)s1)c1ccccc1)c1ccc(C)c(C)c1 (stereo not drawn),16.1%
17,COc1ccc(OC)c(/C=N/NC(=O)CCCC(=O)Nc2cccc(Br)c2)c1,active: 68.5%
18,COC(=O)c1c(NC(=O)c2ccc(C(C)(C)C)cc2)sc2c1CCC(C)C2 (stereo not drawn),23.2%
19,COc1cc(C2CC(=O)c3c([nH]c(C(=O)OC4CCCC4)c3C)C2)cc(OC)c1OC (stereo not drawn),1.97%
20,CCOC(=O)N1CCC(NCCNC(=O)c2ccccc2)CC1,active: 49.2% and active: 50.7%
21,Cn1cccc1-c1cc(C(=O)N/N=C/c2ccccc2Cl)[nH]n1,active: 87.6%
22,CCOC(=O)c1c(NC(=O)COc2ccccc2)sc(C(C)=O)c1C,-19.4%
23,CCN(C(=O)Cn1nc(Cc2ccncc2)c2ccccc2c1=O)c1ccc(OC)cc1,-7.58%
24,CCc1ccc(NC(=O)CNC(=O)Cn2c(C)cc3ccccc3c2=O)cc1,4.62%

row,Structure (SMILES),inhibition
1,Clc1ccc(-c2cn3cc(Cc4ccccc4)sc3n2)cc1,0.788%
2,CCOc1ccc(CCNC(=O)c2ccc(CSCc3ccccc3C)o2)cc1OCC,15.1%
3,O=C(CSc1nc(=O)n(Cc2ccncc2)c2c1CCC2)Nc1cccc(F)c1,0.108%
4,Cc1ccc(NC(=O)C2CCN(S(=O)(=O)c3ccc4c(c3)NC(=O)C(C)S4)CC2)cc1Cl (stereo not drawn),active: 72.5%
5,Cc1cc(C)cc(-n2c(SCC(=O)Nc3ccc4c(c3)OCO4)nc3c([nH]c4ccccc43)c2=O)c1,-3.63%
6,Cc1cccc(N(C)S(=O)(=O)c2ccc3c(c2)NC(=O)CC(=O)N3)c1,7.25%
7,COc1ccc(CNC(=O)C(=O)NCC(c2cccnc2)N2CCN(c3ccccc3)CC2)cc1 (stereo not drawn),1.83%
8,CCCN1CCCc2cc(CN(CCCN3CCOCC3)C(=O)Nc3ccc(Cl)c(Cl)c3)ccc21,8.84%
9,COc1cccc(Cn2c(=O)n(Cc3ccccc3)c(=O)c3c2c2cc(OC)ccc2n3C)c1,-10%
10,Cc1cc2[nH]c(=O)c(=O)[nH]c2cc1S(=O)(=O)N1CCN(c2ccccc2F)CC1,-9.35%
11,COc1ccccc1CN1C[C@@H]2C[C@@H](c3ccc(C)c(C)c3)N3CCC[C@@]23C1=O,active: 34.9%
12,COc1ccc2sc(N(Cc3cccnc3)C(=O)CCc3ccccc3)nc2c1,2.88%
13,CCOC(=O)C1(CCOc2ccccc2)CCN(Cc2ccc(C)o2)CC1,active: 42.2%
14,CC1=C(c2ccc(Cl)cc2)S(=O)(=O)N=C1N1CCN(c2cc(C)ccc2C)CC1,3.09%
15,CCOc1ccc(NS(=O)(=O)c2ccc(OCC(=O)N3CCCC3)cc2)cc1,active: 50.6%
16,CN1CCN(c2oc(-c3ccccc3)nc2S(=O)(=O)c2ccc(Br)cc2)CC1,active: 30.7%
17,Cc1ccc(S(=O)(=O)N(C)c2ccc(C(=O)NCc3ccccn3)cc2)cc1,active: 56.7%
18,Cc1ccc(Nc2ncnc3c2nc2n3CCCC2)cc1F,7.44%
19,Clc1ccc(CSc2nncn3c2cc2occc23)cc1,2.11%
20,COc1ccccc1CNC(=O)C1CCN(S(=O)(=O)Cc2ccccc2)CC1,11.3%
21,Cc1nc2nc[nH]n2c(=O)c1NS(=O)(=O)c1ccc(Br)cc1,10.1%
22,CCOC(=O)c1c(S(=O)(=O)N2CCC(C(=O)NCc3ccccc3Cl)CC2)c(C)n(C)c1C,-8.2%
23,O=S(=O)(c1ccccc1F)N1CCN(CCOc2ccccc2)CC1,active: 39%
24,COc1cccc(CNC(=O)c2ccc3c(c2)sc2nc(-c4cccc(OC)c4)cn23)c1,11.1%

row,Structure (SMILES),inhibition
1,COc1ccc(N2CC(NC(=O)C(c3ccccc3)c3ccccc3)CC2=O)cc1 (stereo not drawn),1.59%
2,COCCn1ccc2c(OCC(=O)Nc3cccc(C(F)(F)F)c3)cccc2c1=O,-26.6%
3,CCOC(=O)c1ccc(NC(=O)Cn2nc(C)c3nn(-c4ccc(Cl)cc4)c(C)c3c2=O)cc1,-13.8%
4,Cc1cccc(N2CCN(C(=O)c3cnn(-c4ccccc4)c3C3CCN(C(=O)OC(C)(C)C)CC3)CC2)c1C,0.91%
5,CCOC(=O)c1c(NC(=O)C(C)Sc2cn(CCNC(=O)c3ccc(OCC)cc3)c3ccccc23)sc2c1CCC2 (stereo not drawn),-18.5%
6,Cc1ccccc1OCC(=O)Nc1ccc2nc(SCC(=O)N3CCCC3)sc2c1,3.63%
7,O=C1Cc2cc(S(=O)(=O)Nc3ccc(OC(F)(F)F)cc3)cc3c2N1CCC3,-17.4%
8,COc1ccc(S(=O)(=O)c2nnn(-c3cccc(Cl)c3)c2N)cc1,2.27%
9,CS(=O)(=O)N1CCC(C(=O)Nc2ccc(OCc3ccccc3)cc2)CC1,active: 45.5%
10,CCOC(=O)c1cc(-c2ccc(OC)c(S(=O)(=O)N3CCN(c4ccccc4)CC3)c2)on1,-2.84%
11,COc1ccc2c(c1)c1c(c(=O)n(-c3cccc(C)c3)c(=O)n1CC(=O)NCCC1=CCCCC1)n2C,1.31%
12,COc1ccccc1Nc1nc(-c2ccccc2)c(CC(=O)O)s1,13%
13,CCOC(=O)c1c(-c2ccc(OC)c(OC)c2)csc1NC(=O)c1ccccc1F,-6.16%
14,Cc1ccc2nc3c(cc(C(=O)NC4CCCC4)c(=N)n3C(C)C)c(=O)n2c1,3.89%
15,O=C(C1CC1)N1CCc2cc(Br)cc(S(=O)(=O)NCCCN3CCCC3)c21,active: 38.8%
16,COc1ccc2[nH]cc(CCNC(=O)Nc3cc(C)cc(C)c3)c2c1,7.44%
17,CCC(Nc1ccc(-c2nc(-c3cccnc3)no2)cc1[N+](=O)[O-])c1ccccc1 (stereo not drawn),14.3%
18,O=c1c2cccnc2n(Cc2cccc(F)c2)c(=O)n1Cc1ccc(F)cc1,17.7%
19,O=C(NC1CC(=O)N(c2ccc(Cl)cc2)C1)c1cc2ccccc2o1 (stereo not drawn),3.02%
20,CC(=O)Nc1ccc(Nc2ccc3cc(S(=O)(=O)N4CCCCC4)ccc3n2)cc1,0.664%
21,Nc1cc(=O)nc(SCC(=O)Nc2ccccc2)n1CCc1ccccc1,14%
22,CCN(c1ccccc1)S(=O)(=O)c1ccc(NC(=O)c2nc(S(C)(=O)=O)ncc2Cl)cc1,22.9%
23,CCOCCOC(=O)c1ccc2c(c1)N(Cc1ccccc1C#N)C(=O)c1ccccc1S2(=O)=O,-5.11%
24,CCc1ccc(C(=O)COC(=O)C(NC(=O)C2CCC(C)CC2)C(C)C)cc1 (stereo not drawn),-16.5%

row,Structure (SMILES),inhibition
1,CCOc1ccc(CCNC(=O)CCCn2c(=O)c3cccn3c3cccnc32)cc1,11.9%
2,COc1ccc(-c2cc3ccc(O)c(CN4CCN(C)CC4)c3oc2=O)cc1OC,6.92%
3,COc1cc(CNC(=O)c2cnc3c(-c4cccc(C)c4)c(C)nn3c2C)cc(OC)c1OC,-1.63%
4,CCCn1c2ccccc2c2cnn(CC(=O)Nc3cc(OC)c(OC)c(OC)c3)c(=O)c21,4.08%
5,CCc1nc2ccc(C(=O)N3CCN(c4cccc(Cl)c4)CC3)cc2nc1CC,11.6%
6,CC(C)c1ccc(Nc2sc(C(=O)c3ccccc3)c(N)c2S(=O)(=O)c2ccccc2)cc1,7.01%
7,CC(C)CC(=O)Nc1nnc(S(=O)(=O)N2c3ccccc3CC2C)s1 (stereo not drawn),5.69%
8,CCOc1ccc(C(=O)NCCc2csc(-c3cccc(C)c3)n2)cc1,-3.41%
9,O=C(CCC(=O)N1CCOc2ccc(Cl)cc21)NCCCN1CCN(Cc2ccccc2)CC1,active: 40.7%
10,Cc1ccc(N2CCN(C(=O)Cn3ncc4c([nH]c5ccc(C)cc54)c3=O)CC2)c(C)c1,1.19%
11,COc1ccc(-n2c(=O)c3c4c(sc3n(Cc3ccccc3C)c2=O)CCCC4)c(OC)c1,-3.51%
12,CCc1cccc(NC(=O)C(Cc2ccccc2)NS(=O)(=O)c2cccs2)c1 (stereo not drawn),-0.313%
13,CC(=O)c1ccc(Nc2cc(C)nc3nc(Cc4ccccc4)nn23)cc1,-12.9%
14,COc1ccc(N(CC(=O)NCCc2ccccc2)S(=O)(=O)c2c(C)nn(C)c2C)cc1,-5.83%
15,CCc1ccc(C2=NN(CCC(=O)NCCc3ccccc3)C(=O)CC2)cc1,5.97%
16,CCc1c(C)c2cc3c(c(C)c2oc1=O)OCN(CCc1ccc(OC)c(OC)c1)C3,24.1%
17,COc1ccc(CCNC(=O)CCN2C(=O)C3CC=CCC3C2=O)cc1OC (stereo not drawn),active: 64.1%
18,COc1cc2c(cc1OC)C(CC(=O)O)N(C(=O)Nc1cc(OC)c(OC)c(OC)c1)CC2 (stereo not drawn),-24.3%
19,Cc1ccc(C)c(N2CCN(CCCNC(=O)c3ccc4nc(N5CCC(C)CC5)sc4c3)CC2)c1,3.9%
20,CC(=O)c1ccc(NC(=O)CSc2nc(-c3ccccc3C)nc3c2c(=O)n(C)c(=O)n3C)cc1,-7.46%
21,CCOC(=O)c1c(C)oc2nc(C)nc(N(C)Cc3ccccc3)c12,0.667%
